Measurements published in patent publication US20220372098A1 (Johns Hopkins, published 2022).
Values belong to the binder of their own block, whether it stands above or below them.

How the values were obtained:
[1] = target: T1, biotinylated human IL-2Rβ extracellular domain with C-terminal biotin acceptor peptide (human, UniProt P14784 27-240, biotinylated with BirA ligase on the C-terminal biotin acceptor peptide); test: bio-layer interferometry (Octet), equilibrium titration on immobilized biotinylated human IL-2Rβ
T1 construct: extracellular domain; Immobilized on streptavidin tips in BLI; also called hIL-2Rβ; immobilized human IL-2Rβ
T1 sequence: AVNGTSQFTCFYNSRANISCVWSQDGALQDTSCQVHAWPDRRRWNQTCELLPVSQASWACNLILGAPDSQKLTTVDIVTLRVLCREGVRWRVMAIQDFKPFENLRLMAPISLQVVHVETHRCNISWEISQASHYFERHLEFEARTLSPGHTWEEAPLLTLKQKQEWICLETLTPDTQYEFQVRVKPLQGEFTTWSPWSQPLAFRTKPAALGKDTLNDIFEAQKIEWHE
Description: (§1) Less than 5 signal units (nm) of receptor was immobilized to minimize mass transfer effects. […] Data was visualized and processed using the Octet® Data Analysis software version 7.1 (Molecular Devices).

[2] = target: T2, biotinylated human IL-2Rα extracellular domain with C-terminal biotin acceptor peptide (human, UniProt P01589 22-240, biotinylated with BirA ligase on the C-terminal biotin acceptor peptide); test: bio-layer interferometry (Octet), equilibrium titration on immobilized biotinylated human IL-2Rα
T2 construct: extracellular domain; Immobilized on streptavidin tips in BLI; also called hIL-2Rα; immobilized human IL-2Rα
T2 sequence: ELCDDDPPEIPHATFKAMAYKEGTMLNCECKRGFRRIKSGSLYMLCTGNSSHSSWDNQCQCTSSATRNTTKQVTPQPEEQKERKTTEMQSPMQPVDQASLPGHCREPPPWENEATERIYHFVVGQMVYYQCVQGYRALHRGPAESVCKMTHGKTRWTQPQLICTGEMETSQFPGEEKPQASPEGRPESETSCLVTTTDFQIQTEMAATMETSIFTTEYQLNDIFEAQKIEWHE
Description: as §1

EC50 (read off the curve) [1]: ~100 nM
B1: human IL-2 cytokine, soluble, with C-terminal hexahistidine tag (ligand)
chain: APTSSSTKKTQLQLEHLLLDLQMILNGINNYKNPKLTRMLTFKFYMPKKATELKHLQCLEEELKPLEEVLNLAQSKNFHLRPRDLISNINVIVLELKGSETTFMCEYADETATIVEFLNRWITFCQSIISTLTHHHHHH
notes: Made in HEK 293F cells; also called hIL-2; untethered hIL-2

binding result [2]: no binding (tested: about 1.6e-6 M)
EC50 (read off the curve) [1]: ~20 nM
B2: 602 immunocytokine: hIL-2 fused by a (G4S)2 linker to the N-terminus of the light chain of the full-length 602 antibody (other)
heavy: EVQLQESGPGLVAPSQSLSITCTVSGFSLTNYDISWIRQPPGKGLEWLGVIWTGGGTNYNSGFMSRLSITKDNSKSQVFLKMNSLQTDDTAIYYCVRQGRTPYWGQGTLVTVSAAKTTAPSVYPLAPVCGDTTGSSVTLGCLVKGYFPEPVTLTWNSGSLSSGVHTFPAVLQSDLYTLSSSVTVTSSTWPSQSITCNVAHPASSTKVDKKIEPRGPTIKPCPPCKCPAPNLLGGPSVFIFPPKIKDVLMISLSPIVTCVVVDVSEDDPDVQISWFVNNVEVHTAQTQTHREDYNSTLRVVSALPIQHQDWMSGKEFKCKVNNKDLPAPIERTISKPKGSVRAPQVYVLPPPEEEMTKKQVTLTCMVTDFMPEDIYVEWTNNGKTELNYKNTEPVLDSDGSYFMYSKLRVEKKNWVERNSYSCSVVHEGLHNHHTTKSFSRTPGK
light: [about 150 residues not spelt out]GGGGSGGGGSDIQVTQSPSSLSVSLGDRVTITCKASKDIYNRLAWYQQKPGNAPRLLISGATSLETGVPSRFSGSGSGKDYTLTITSLQTEDVATYYCQQFWGTPYTFGGGTKLEIKRADAAPTVSIFPPSSEQLTSGGASVVCFLNNFYPKDINVKWKIDGSERQNGVLNSWTDQDSKDSTYSMSSTLTLTKDEYERHNSYTCEATHKTSTSPIVKSFNRNEC
